No constants are given. Whether binding was seen depends on the method and setting. In cells and extracts the contact can be indirect. Sequences can lack the tags named with a protein.
Experiments:
Assay in all cases: co-IP; GFP-tagged baits purified with GFP-Trap from yeast cell lysates in IP buffer (20 mM Tris-HCl pH 7.5, 5 mM MgCl2, 150 mM potassium acetate, 1 mM DTT, 0.2% Triton X-100); no RNase A; endogenous Rrp12 detected by Western blot
Settings in all cases: remark: other sources report otherwise
[1] = molecular target: T1, Arx1-GFP (S. cerevisiae), Q03862
T1 chain: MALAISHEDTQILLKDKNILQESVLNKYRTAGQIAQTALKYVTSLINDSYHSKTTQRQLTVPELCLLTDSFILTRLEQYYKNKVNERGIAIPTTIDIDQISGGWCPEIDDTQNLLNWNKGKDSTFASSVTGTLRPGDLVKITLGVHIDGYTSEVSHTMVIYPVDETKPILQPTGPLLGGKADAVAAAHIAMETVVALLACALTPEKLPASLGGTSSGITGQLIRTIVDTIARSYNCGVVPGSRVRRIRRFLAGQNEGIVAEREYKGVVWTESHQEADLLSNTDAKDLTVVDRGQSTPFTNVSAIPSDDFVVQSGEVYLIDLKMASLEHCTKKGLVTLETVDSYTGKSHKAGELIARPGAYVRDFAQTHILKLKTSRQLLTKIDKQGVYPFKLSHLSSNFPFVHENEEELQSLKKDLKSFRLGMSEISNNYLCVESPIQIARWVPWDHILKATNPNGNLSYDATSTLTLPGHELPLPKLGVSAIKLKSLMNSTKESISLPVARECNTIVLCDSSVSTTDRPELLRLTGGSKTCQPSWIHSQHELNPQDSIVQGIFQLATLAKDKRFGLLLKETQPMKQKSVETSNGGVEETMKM

[2] = molecular target: T2, Kre35-GFP (S. cerevisiae), P53145
T2 chain: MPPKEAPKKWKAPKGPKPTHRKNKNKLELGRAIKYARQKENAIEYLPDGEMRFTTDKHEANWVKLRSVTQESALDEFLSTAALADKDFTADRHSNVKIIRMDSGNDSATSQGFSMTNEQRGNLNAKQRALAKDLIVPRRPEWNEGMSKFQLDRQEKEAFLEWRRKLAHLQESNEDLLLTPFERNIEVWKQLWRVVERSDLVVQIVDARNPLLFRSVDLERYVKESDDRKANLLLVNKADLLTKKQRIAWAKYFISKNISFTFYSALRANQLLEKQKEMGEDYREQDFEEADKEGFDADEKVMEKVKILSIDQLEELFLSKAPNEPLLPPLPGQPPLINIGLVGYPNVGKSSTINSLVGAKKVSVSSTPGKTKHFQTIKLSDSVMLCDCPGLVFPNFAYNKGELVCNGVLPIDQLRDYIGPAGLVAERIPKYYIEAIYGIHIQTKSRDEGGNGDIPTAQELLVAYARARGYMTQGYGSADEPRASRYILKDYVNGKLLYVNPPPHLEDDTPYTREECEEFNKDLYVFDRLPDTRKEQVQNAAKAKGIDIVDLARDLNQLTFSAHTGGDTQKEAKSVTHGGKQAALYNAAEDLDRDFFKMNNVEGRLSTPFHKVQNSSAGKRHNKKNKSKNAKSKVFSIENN

[3] = molecular target: T3, Nop7-GFP (S. cerevisiae), P53261
T3 chain: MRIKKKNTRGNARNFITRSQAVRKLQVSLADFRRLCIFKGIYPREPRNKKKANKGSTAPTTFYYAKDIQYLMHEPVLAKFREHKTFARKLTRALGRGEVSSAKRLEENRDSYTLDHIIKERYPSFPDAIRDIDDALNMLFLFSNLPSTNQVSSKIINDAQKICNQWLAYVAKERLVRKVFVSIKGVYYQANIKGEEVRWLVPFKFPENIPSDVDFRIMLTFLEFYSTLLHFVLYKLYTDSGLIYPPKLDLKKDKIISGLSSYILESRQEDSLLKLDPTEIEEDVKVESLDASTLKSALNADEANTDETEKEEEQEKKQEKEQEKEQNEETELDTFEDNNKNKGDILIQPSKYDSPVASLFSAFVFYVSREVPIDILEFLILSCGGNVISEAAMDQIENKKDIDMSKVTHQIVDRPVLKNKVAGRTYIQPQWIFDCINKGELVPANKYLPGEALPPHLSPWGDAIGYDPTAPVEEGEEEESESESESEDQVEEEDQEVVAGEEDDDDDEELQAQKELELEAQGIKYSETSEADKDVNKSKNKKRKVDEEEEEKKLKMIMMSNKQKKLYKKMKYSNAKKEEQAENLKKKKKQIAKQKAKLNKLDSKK

[4] = molecular target: T4, Rio2-GFP (S. cerevisiae), P40160
T4 chain: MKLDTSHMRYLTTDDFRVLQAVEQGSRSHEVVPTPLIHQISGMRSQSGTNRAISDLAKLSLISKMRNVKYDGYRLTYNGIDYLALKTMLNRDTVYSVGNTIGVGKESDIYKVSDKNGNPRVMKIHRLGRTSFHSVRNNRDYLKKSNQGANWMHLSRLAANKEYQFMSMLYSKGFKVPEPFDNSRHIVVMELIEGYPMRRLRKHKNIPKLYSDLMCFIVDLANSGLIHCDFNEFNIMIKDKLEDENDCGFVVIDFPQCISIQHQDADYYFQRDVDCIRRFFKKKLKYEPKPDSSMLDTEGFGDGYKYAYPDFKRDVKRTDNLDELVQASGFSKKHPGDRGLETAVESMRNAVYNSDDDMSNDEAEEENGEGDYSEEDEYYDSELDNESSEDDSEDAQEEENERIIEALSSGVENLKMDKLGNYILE

Measured: binding

B1: Rrp12 (endogenous), Q12754 1-1228 (protein)
chain: MDQDKVAFLLELEDKLAKIRSQVNSKLENQKHIAIILTAVEENIAGQATNDVSKNIVNYIISFMSLLDQAVDPSTHEIKDIQLASSSTYLLDLIFHYSPKVLLRSKFSEILTKIAPCITAEKANAPLIRAAIGCLESLLIAQDAQAWNNTYDLNVTPKRGLQGILELSLDVRPKVRKRALDAVHAVLLNPPVAPTAEHVAAVFVADFCDKQLAGILNDLSNLSNKQLKAQKTKEDINASVMRSLRLITSVVSTGQWPSSQIEPLCDVLLGVTKSSEQYLVSASFECFESMFKTMAETTISSGLAENKYLRVLDTIFALKPSNVDTLLTKSWIAVVIKGMSTYATHQPLKALRKIPGVFHIMCTYLASETPEVYQAASQCLISILSESVKDDLLLYTPSVDEKVFKNVDEIISQIAKTFIDFLSIRYSHCSREILKILVAAFNKFRYRSNPHFLKSLKIVDTWRVNEEQFMDLRNEIELVIGASISAMGPEMILAEAPLNLDNPSSERPGRAWLLPLIRDYTKNANLATFQNELAPYIKSFQSKFDKVPEESIQLRVFQTIVDQIWSTLPRFCELPMDLRESFTDEFASELSSLLYSEVELRTTICHALKVLAESNVSYAEESSSHNVLLLQRFPISEAQKNIEYLSTKSTNLLAVLFNVYTQTTPNARSYILETIDQYLKITSKEDLEKTFNNVCGLLKNSMNEESSGNVNKEKKKPQLTATLLDLIICMITYLPVSSYSALFSMFSLTVNSADALIQKRAYRIITKLSELKSGSTAVAQFISDIENVMVDSASSVQTSAKAARLTAIKTIVELLPLDHLDFIVRTVAEVILSTKDVNEKSRETAFDTLICMGRKMNEPNGIIKLFQIPGYDPTTPDQSSSISEFFKIISAGLIGESQHMVSSSITGYACLVFEFKNELDSGILMDIYDTIELYLTSNSREIVKSAIGFTKVCVLGLPEELMRPKVPELLLKLLRWSHEHTGHFKAKVKHIIERLIRRFGYDYIEANFPEEDRRLLTNIRKMRNRNKRKDEEVTTGVSDVAATKGSRFMSAFDEAVYGSDEENDNGSDQEENVAGGKMKNGAKQFIVESGDNPLDLLDSQTLAHISSTRPKKFNKNQNRARFNDDAFNFDSEGKLVVKGQPKPSTNVDDPLSAVTSGINAYLEAVKSGPVRGQRNKLKFRKNGKDSDEFGDDDDGEKDSRLMRGRVNQGNKIGKHNKKGPKFKSRKKL
no binding: [1] | [2] | [3] | [4]

Source: article PMC4256259
